Measurements taken from patent US20250136663A1 (IMMUNITYBIO, published 2025).

Columns and labels:
[1] = molecular target: T1, TGF-β1 (BioLegend) (UniProt P01137 in part); assay: cell-based or functional assay
[2] = molecular target: T1, TGF-β1 (BioLegend); assay: ELISA: HCW molecule captured on an anti-TF IgG1-coated plate, TGF-β1 titrated, detected with biotinylated antibody (BAF240), HRP-SA and ABTS, OD405. The EC50 is the concentration of titrated TGF-β1. The table prints no unit; pM is taken from the x axis.
Description: TGFRt15-TGFRs (HCW9218) (10 pg/mL), HCW9228 (10 pg/mL), and TGFR*t15-TGFR*s (HCW9238) (10 pg/mL) were added to a 96-well plate coated with anti-TF IgG1 and incubated at room temperature (RT). The plates were washed and blocked with a blocking buffer of 1% BSA in PBS. Then, the plates were washed, TGF-β1 (BioLegend) titrated down from 4000 pM to 31 pM was added to the plates and the plates were incubated at RT. Then, the plates were washed, 200 ng/mL of biotinylated-anti-TGFβRI antibody (BAF240, R&D Systems) was added to the wells and the plates were incubated at RT. Next the plates were washed, and 0.2 pg/mL of HRP-SA (Jackson ImmunoResearch) was added to each well and incubated at RT, followed by incubation with ABTS at RT. Absorbance at 405 nm was read.

[3] = molecular target: T2, LAP (R&D Systems) (UniProt P01137 in part); assay: ELISA: HCW molecule captured on an anti-TF IgG1-coated plate, LAP titrated, detected with biotinylated anti-LAP antibody (BAM2462), HRP-SA and ABTS, OD405. The EC50 is the concentration of titrated LAP. The table prints no unit; pM is taken from the x axis.
T2 construct: domain: LAP
Description: TGFRt15-TGFRs (HCW9218) (10 μg/mL), HCW9228 (10 μg/mL), and TGFR*t15-TGFR*s (HCW9238) (10 μg/mL) were added to a 96-well plate coated with anti-TF IgG1 and incubated at room temperature (RT). The plates were washed and blocked with a blocking buffer of 1% BSA in PBS. Then, the plates were washed, LAP (R&D Systems) titrated down from 4000 pM to 31 pM, was added to the plates and the plates were incubated at RT. Then, the plates were washed, 100 ng/mL of biotinylated-anti-LAP antibody (BAM2462, R&D Systems) was added to the wells and the plates were incubated at RT. Next the plates were washed, and 0.2 μg/mL of HRP-SA (Jackson ImmunoResearch) was added to each well and incubated at RT, followed by incubation with ABTS at RT. Absorbance at 405 nm was read.

T1 sequence (P01137 279-390 limits assumed): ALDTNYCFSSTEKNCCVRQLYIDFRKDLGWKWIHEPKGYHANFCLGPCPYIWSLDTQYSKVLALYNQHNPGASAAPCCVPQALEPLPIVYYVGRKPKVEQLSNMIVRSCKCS

IC50 (read off the curve) [1]: ~0.09 nM | EC50 [2]: 0.857 nM | EC50 [3]: 0.431 nM
B1: TGFRt15-TGFRs (HCW9218) (other)
chain 1: IPPHVQKSVNNDMIVTDNNGAVKFPQLCKFCDVRFSTCDNQKSCMSNCSITSICEKPQEVCVAVWRKNDENITLETVCHDPKLPYHDFILEDAASPKCIMKEKKKPGETFFMCSCSSDECNDNIIFSEEYNTSNPDGGGGSGGGGSGGGGSIPPHVQKSVNNDMIVTDNNGAVKFPQLCKFCDVRFSTCDNQKSCMSNCSITSICEKPQEVCVAVWRKNDENITLETVCHDPKLPYHDFILEDAASPKCIMKEKKKPGETFFMCSCSSDECNDNIIFSEEYNTSNPDSGTTNTVAAYNLTWKSTNFKTILEWEPKPVNQVYTVQISTKSGDWKSKCFYTTDTECDLTDEIVKDVKQTYLARVFSYPAGNVESTGSAGEPLYENSPEFTPYLETNLGQPTIQSFEQVGTKVNVTVEDERTLVRRNNTFLSLRDVFGKDLIYTLYYWKSSSSGKKTAKTNTNEFLIDVDKGENYCFSVQAVIPSRTVNRKSTDSPVECMGQEKGEFRE[not shown - about 120 residues]
chain 2: IPPHVQKSVNNDMIVTDNNGAVKFPQLCKFCDVRFSTCDNQKSCMSNCSITSICEKPQEVCVAVWRKNDENITLETVCHDPKLPYHDFILEDAASPKCIMKEKKKPGETFFMCSCSSDECNDNIIFSEEYNTSNPDGGGGSGGGGSGGGGSIPPHVQKSVNNDMIVTDNNGAVKFPQLCKFCDVRFSTCDNQKSCMSNCSITSICEKPQEVCVAVWRKNDENITLETVCHDPKLPYHDFILEDAASPKCIMKEKKKPGETFFMCSCSSDECNDNIIFSEEYNTSNPDITCPPPMSVEHADIWVKSYSLYSRERYICNSGFKRKAGTSSLTECVLNKATNVAHWTTPSLKCIR
notes: also called TGFβR/TF/IL-15:TGFβR/IL-15RαSu protein complex
